Results from PubChem BioAssay AID2147 (National Center for Advancing Translational Sciences (NCATS), 2009).
“And” between values parts separate entries of the source, which are not always exact repeats. Identical values can stand only once. Screen size: about 230,000 compounds; about 3,600 (1.6%) were called active. This list was built around the results that the source calls inconclusive (neither active nor inactive); the mix of calls is not that of the screen. The call rests on the fitted dose curve; in most records, active means well fitted inhibition curve with a large enough effect (not every such curve was filed as active); inconclusive means small, poorly fitted or top-dose-only effect, or another doubt; inactive means no such curve, though single readings can be large or run the other way. A potency beside an inconclusive call is a rough fit, not a confirmed value.

biological target: Lysine-specific demethylase 4E (Homo sapiens) (UniProt B2RXH2); experiment: qHTS Assay for Inhibitors of Human Jumonji Domain Containing 2E (JMJD2E); conditions: JMJD2E catalytic domain, FDH-coupled NADH fluorescence (FDH is formaldehyde dehydrogenase); series mostly up to 57.1 µM; activity change, negative = inhibition: at the top concentration
Further: nearly all actives have a fitted effect of over 50% in size.
Potency means the concentration at half of the fitted maximal effect; tags describe the fitted curve by direction and shape.
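Wherever activity change, negative = inhibition is given: 0% = wells with enzyme and -100% = buffer wells without enzyme.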

Chain of UniProt B2RXH2 (B2RXH2 whole entry, looked up, the tested form may be a part): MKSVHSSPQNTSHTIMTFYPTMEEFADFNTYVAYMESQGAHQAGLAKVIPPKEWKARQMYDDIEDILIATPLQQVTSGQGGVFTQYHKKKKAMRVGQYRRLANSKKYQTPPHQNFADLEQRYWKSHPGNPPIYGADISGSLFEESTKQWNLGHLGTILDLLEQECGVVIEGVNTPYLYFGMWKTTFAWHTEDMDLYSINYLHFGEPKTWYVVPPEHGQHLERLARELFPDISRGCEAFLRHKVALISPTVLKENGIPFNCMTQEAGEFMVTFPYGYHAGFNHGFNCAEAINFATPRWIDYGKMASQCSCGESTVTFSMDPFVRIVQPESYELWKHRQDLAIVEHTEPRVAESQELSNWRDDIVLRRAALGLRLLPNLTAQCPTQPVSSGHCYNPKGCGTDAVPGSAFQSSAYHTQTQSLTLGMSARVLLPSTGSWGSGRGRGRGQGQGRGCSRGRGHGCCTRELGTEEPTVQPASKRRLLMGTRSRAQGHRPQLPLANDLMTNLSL

SMILES	Potency	activity change, negative = inhibition
CN(C)CCCOc1nn(Cc2ccccc2)c2ccccc12	inconclusive: 15.8 µM [inhibitor, single point]	
O=C(Nc1nc2ccccc2[nH]1)c1ccc(Cl)c(S(=O)(=O)N2CCCC2)c1		inactive: 2.07%
O=C(CSC(=S)N1CCCC1)c1cc(Br)cc(Br)c1O	inconclusive: 31.6 µM [inhibitor, single point]	
Cc1ccc(CNC(=O)C2CC(c3cc(C(F)(F)F)cc(C(F)(F)F)c3)=NO2)o1 (stereo not given)		inactive: -14.8%
C/C(Cn1nc([N+](=O)[O-])cc1C)=N\NC(=O)COc1ccccc1[N+](=O)[O-]		inactive: -2.62%
CCOC(=O)c1cc2c3ccccc3n(CC)c2nc1N	inconclusive: 3.16 µM [inhibitor, full curve]	
COc1ccccc1N1C(=O)CC(N2CCc3ccccc32)C1=O (stereo not given)	inconclusive: 39.8 µM [inhibitor, single point]	
Cc1ccccc1NC(=S)N/N=C/c1ccc(O)cc1O	active: 14.1 µM	
Cc1cc2c(=O)n(Cc3ccco3)c(SCC(=O)c3ccc(Cl)s3)nc2s1	inconclusive: 39.8 µM [inhibitor, single point]	
CC(C)OC(=O)[C@H]1O[C@H](CCCCOCc2ccccc2)[C@@H](C)[C@H]2O[C@H]21		inactive: 11.9%
c1ccc(CSc2nnc3ccc(-c4cccs4)nn23)nc1	inconclusive: 31.6 µM [inhibitor, partial curve]	
C=CCNC(=O)c1c(N)n(-c2cccc(S(N)(=O)=O)c2)c2nc3ccccc3nc12	inconclusive: 28.2 µM [inhibitor, partial curve]	
N#C/C(=C\c1cccc(Oc2ccc(C(F)(F)F)cc2[N+](=O)[O-])c1)c1nc2ccccc2[nH]1	inconclusive: 17.8 µM [inhibitor, partial curve]	
COC(=O)CCCNC(=O)c1ccc2[nH]c(C)c(C)c2c1		inactive: -16.3%
COc1ccc(/C=N/Nc2nc(-c3cccnc3)nc3ccccc23)cc1OC	inconclusive: 28.2 µM [inhibitor, partial curve]	
O=C(COC(=O)c1ccc2ccccc2c1)Nc1ncc(C(F)(F)F)cc1Cl	inconclusive: 35.5 µM [inhibitor, single point]	
CCOC(=O)N1CCC(NC(=O)C2CCN(C(=O)c3cc4oc(C)cc4n3Cc3c(F)cccc3Cl)CC2)CC1		inactive: 3.9%
O=S(=O)(c1ccc(Cl)cc1)N1CCC(N2CCOCC2)CC1	inconclusive: 28.2 µM [inhibitor, single point]	
Cc1ccc(S(=O)(=O)NCC(=O)N(CC(=O)NCc2ccco2)Cc2ccco2)cc1		inactive: -12.3%
Cc1ccc(-c2csc(Nc3ccc(C(=O)O)cc3)[n+]2Cc2ccccc2)cc1		inactive: 3.67%
COc1ccc2nc(SC(C(=O)c3ccccc3)c3ccccc3)nc(C)c2c1 (stereo not given)	inconclusive: 35.5 µM [inhibitor, single point]	
Cc1ccc(C(=O)NNC(=O)C2CCCN(c3ncccn3)C2)cc1 (stereo not given)	inconclusive: 35.5 µM [inhibitor, single point]	
COc1cc(C(=O)N=c2sc3ccccc3n2C)cc(OC)c1OC	inconclusive: 31.6 µM [inhibitor, partial curve]	
O=C(N/N=C1\CCc2ccccc21)c1ccccc1O	inconclusive: 39.8 µM [inhibitor, single point]	

SMILES	Potency	activity change, negative = inhibition
Cc1ccc(C2C=C(c3ccccc3OC(F)F)Nc3ncnn32)cc1 (stereo not given)	inconclusive: 35.5 µM [inhibitor, partial curve]	
CCCn1nc(NC(=O)c2cccs2)c2cc3ccc(C)cc3nc21	inconclusive: 35.5 µM [inhibitor, single point]	
O=C(CSc1nnnn1C1CCCC1)N1CCN(C(=O)c2ccco2)CC1		inactive: -2.28%
Fc1ccc(-c2n[nH]c(=S)c3ccccc23)cc1		inactive: -7.33%
O=C(CN1CCN(c2ccc(F)cc2)CC1)NCc1cccs1	inconclusive: 31.6 µM [inhibitor, single point]	
COC(=O)c1ccccc1NC(=O)C1CC(=O)N(C2CCCCC2)C1 (stereo not given)	inconclusive: 39.8 µM [inhibitor, single point]	
CCn1ccnc1CN(C)Cc1cn(-c2ccc(C)cc2)nc1-c1cccc(C)c1	inconclusive: 0.708 µM [inhibitor, full curve, poor fit]	
CN1/C(=C\C=Nc2ccc3ccccc3c2)C(C)(C)c2ccccc21	inconclusive: 12.6 µM [inhibitor, partial curve]	
CN1CCN(C(=O)c2cnn3c(C(F)(F)F)cc(-c4cccs4)nc23)CC1	inconclusive: 31.6 µM [inhibitor, single point]	
C=CCn1c(SCC(=O)N(C)C)nc2cc(C(=O)O)ccc2c1=O	inconclusive: 39.8 µM [inhibitor, single point]	
CCOC(=O)C(=O)Nc1nccs1		inactive: 11%
CCN=c1sc(C(=O)NCCc2ccccc2)cc(=O)n1CC		inactive: 5.8%
O=C(CNS(=O)(=O)c1ccc2ccccc2c1)OCc1csc(-c2ccccc2)n1	inconclusive: 39.8 µM [inhibitor, single point]	
O=C(COc1cccc(Cl)c1)N/N=C\c1cc2ccccc2nc1Cl	inconclusive: 6.31 µM [inhibitor, single point]	
COCC(=O)N(Cc1cc2cc(OC)ccc2[nH]c1=O)c1ccccc1OC	inconclusive: 31.6 µM [inhibitor, partial curve]	
COc1ccc2[nH]c(=O)c(CN(C(=O)c3ccncc3)C(C)C)cc2c1	inconclusive: 35.5 µM [inhibitor, single point]	
CCn1cc(C(=O)O)c(=O)c2cc(F)c(N3CCN(C(=O)Nc4ccccc4)CC3)cc21	inconclusive: 28.2 µM [inhibitor, partial curve]	
O=C1c2c(O)cc(O)cc2OC(c2ccc(O)c(O)c2)C1O (stereo not given)	active: 10 µM and active: 8.91 µM	
Cc1cc(C)n(-c2ncnc3sc4c(c23)CCCC4)n1	inconclusive: 28.2 µM [inhibitor, partial curve]	
O=C1c2c(O)cc(O)cc2O[C@H](c2ccc(O)c(O)c2)[C@H]1O	active: 20 µM	
COc1ccc(-c2nc(C#N)c(NCC3CCCO3)o2)cc1 (stereo not given)	inconclusive: 28.2 µM [inhibitor, partial curve]	
O=[N+]([O-])c1ccc(N2CCN(S(=O)(=O)c3ccc(Cl)cc3)CC2)cc1NCC1CCCO1 (stereo not given)		inactive: 1.22%
Cc1cccc(N2CCN(C(=O)C(C)n3nc(C)n4c(cc5occc54)c3=O)CC2)c1C (stereo not given)	inconclusive: 39.8 µM [inhibitor, single point]	
CN1CCN(c2nc3c(c(=O)[nH]c(=O)n3C)n2CCCSc2nnnn2-c2ccccc2)CC1		inactive: -7.73%

SMILES	Potency	activity change, negative = inhibition
CCOC(=O)Cn1c(-c2ccccn2)nc2ccccc21	inconclusive: 31.6 µM [inhibitor, partial curve]	
Cc1cc(C)n2[nH]c(=O)c(N=Nc3cccc(C(F)(F)F)c3)c2n1	inconclusive: 39.8 µM [inhibitor, single point]	
CCOC(=O)c1n[nH]c(=O)c2ccccc12		inactive: 0.542%
O=C(Cn1nnc(-c2ccccc2NC(=O)c2cccs2)n1)Nc1ccccc1	inconclusive: 35.5 µM [inhibitor, single point]	
CCOc1ccc(C2C(C#N)=C(N)SC(N)=C2C#N)cc1OC	inconclusive: 39.8 µM [inhibitor, single point]	
Cc1cc(-c2ccc(Cl)cc2)n2ncnc2n1	inconclusive: 7.94 µM [inhibitor, partial curve]	
CC(C)C1NC(=O)[C@H](CCCCN)NC(=O)[C@@H](Cc2c[nH]c3ccccc23)NC(=O)[C@H](Cc2ccc(O)cc2)NC(=O)[C@H](C)N(C)C(=O)[C@H](Cc2ccccc2)NC1=O (stereo not given in full)		inactive: 6.5%
CC1=NN(c2ccccc2)C(=O)/C1=C/c1cccs1	inconclusive: 3.16 µM [inhibitor, full curve]	
Cc1ccccc1NS(=O)(=O)c1cc(S(C)(=O)=O)ccc1Cl		inactive: 2.25%
COC(=O)Cc1cc(=O)n(-c2nc3ccccc3s2)[nH]1	inconclusive: 39.8 µM [inhibitor, single point]	
Cc1ccc(Oc2ncccc2C(=O)NCC(=O)O)cc1		inactive: 5.33%
NC(=O)c1cc(N2C(=O)C3CC=CCC3C2=O)ccc1N1CCCCC1 (stereo not given)	inconclusive: 39.8 µM [inhibitor, single point]	
N#CC(C#N)=C1C(=O)N(CCN2CCOCC2)c2ccccc21	inconclusive: 22.4 µM [inhibitor, single point]	
COC(=O)CCCC1=CC2=C(c3ccccc3)C(=O)C(C)(OC(=O)C3CCCC3)C(=O)C2=CN1CCc1ccccn1 (stereo not given)	inconclusive: 35.5 µM [inhibitor, single point]	
COc1cc(OC)cc(-c2nc3ccccc3c(=O)n2OC(=O)c2ccc(Br)cc2)c1	inconclusive: 31.6 µM [inhibitor, single point]	
COc1ccc(OCC(=O)N2CCN(c3cccc(Cl)c3)CC2)cc1		inactive: 6.63%
COc1ccc(N2CC(C)Cn3c2nc2c3c(=O)n(Cc3ccccc3F)c(=O)n2C)c(OC)c1 (stereo not given)	inconclusive: 39.8 µM [inhibitor, single point]	
O=C(COC(=O)c1ccc2ccccc2n1)Nc1ncc(C(F)(F)F)cc1Cl		inactive: -3.97%
Cc1ccccc1S(=O)(=O)c1c(C)cc(C)n(C)c1=O	inconclusive: 28.2 µM [inhibitor, single point]	
CC(=O)Nc1cccc(O)c1		inactive: -0.24%
CC(C)CC(NC(=O)CC12CC3CC(CC(C3)C1)C2)C(=O)NC1=NCCS1 (stereo not given)		inactive: -3.45%
O=c1cc(-c2ccco2)oc2ccc(Cl)cc12	inconclusive: 3.16 µM [inhibitor, partial curve]	
